Data on 60 compounds can be found in PubChem BioAssay AID1508624 (National Center for Advancing Translational Sciences (NCATS), 2021).

Among all 48,000 compounds or so, about 120 (0.25%) were called active. About 4% were inconclusive and are not listed. The call rests on the fitted dose curve; in most records, active means well fitted activation curve with a large enough effect; inconclusive means small, poorly fitted or top-dose-only effect, or another doubt; inactive means no such curve, though single readings can be large or run the other way. The list shows a part of the results.

This experiment in a line: Primary qHTS for Identification of Small Molecule Activators of Huntingtin-Antisense Promoter Activity. Further: nearly all actives have a fitted effect of over 55% in size. To be noted: HEK293 HTT-AS promoter firefly luciferase reporter, 24 h; series mostly up to 57.5 µM; activity change, positive = activation: at the top concentration. Put shortly: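 Firefly luciferase readout (Dual-Glo, 10 min RT) after 24 h, 37 °C compound exposure (final up to 57.5 uM) of HEK293 reporter cells cultured 24 h beforehand; PTC124 at 50 uM final as control inhibitor; activity scaled vehicle 0%, zero RLU -100%.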
A general note: In qHTS, concentration-response curves come from the screen itself.
As for `Cc1cc2n(n1)CCCN2C(=O)Nc1ccccc1F`, the “activity change, positive = activation” value was inactive: -6.03%.

For the compound `COc1cccc(C(=O)N2CCC(c3nc4ccccc4s3)CC2)c1`, the “activity change, positive = activation” value is inactive: -13.7%.

Regarding `COCCNc1cc(N2CCN(C3CCCCC3)CC2)c2noc3c2c1C(=O)c1ccccc1-3`, the “activity change, positive = activation” value was inactive: -10.2%.

Take `CCOc1ccccc1NC(=O)c1ccc2c(c1)CCCN2S(C)(=O)=O`: the “activity change, positive = activation” value is inactive: 27.9%.

As to `Cc1ccc(C(=O)Nc2nnc(SCc3cc(=O)c4c(C)ccc(C)c4[nH]3)s2)cc1`, the “activity change, positive = activation” value is inactive: -27.1%.

For `O=C(C1COc2ccccc2O1)N(Cc1cccnc1)c1nc2c(F)cc(F)cc2s1` (stereo not given), the “activity change, positive = activation” value was inactive: 11.4%.

Regarding `O=C(Nc1ccc2nn(-c3ccc(F)cc3)nc2c1)c1cccc2c(Cl)cccc12`, the “activity change, positive = activation” value is inactive: -3.29%.

Take `Cc1ccc(Cl)cc1N1CCN(C(=O)c2c(C)oc3ncnc(N4CCOCC4)c23)CC1`: the “activity change, positive = activation” value was inactive: -20%.

`COC(=O)c1cccc(Nc2c(-c3cc(Br)ccc3O)nc3nc[nH]n23)c1`: the “activity change, positive = activation” value was inactive: -8.74%.

For the compound `Cc1cc(C)cc(OCC(=O)Nc2ccc(-c3nc4ncccc4o3)cc2C)c1`, the “activity change, positive = activation” value was inactive: -5.44%.

For `CCc1nnc(SCc2nc(-c3ccccc3F)oc2C)c2cc3sccc3n12`, the “activity change, positive = activation” value is inactive: -11.5%.

Regarding `CCOc1ccccc1NC(=O)c1c(NCc2ccc(OC)c(OC)c2OC)sc2c1CCC(C)C2` (stereo not given), the “activity change, positive = activation” value was inactive: -34.6%.

`CCOc1ccc(NC(=O)C2CCCN(c3nnc(-n4c(C)ccc4C)s3)C2)cc1` (stereo not given): the “activity change, positive = activation” value was inactive: 5.35%.

Take `CCc1ccc(NCc2cc3ccc(OC)cc3n(CC(=O)Nc3cccc(Cl)c3C)c2=O)cc1`: the “activity change, positive = activation” value is inactive: 3.98%.

Take `COCCN1C(=O)c2[nH]nc(-c3c(C)cc(C)cc3O)c2C1c1cccc(O)c1` (stereo not given): the “activity change, positive = activation” value is inactive: -40.5%.

`CC(=O)c1ccc(NC(=O)C2CCC(CNS(=O)(=O)c3cccc4nsnc34)CC2)cc1` (stereo not given): the activity change, positive = activation is inactive: 4.33% [at 11.5 µM, percent change from vehicle, -100% = no light].

Take `CCc1ccccc1N1C(=O)N(Cc2cccc(Cl)c2)c2ccccc2S1(=O)=O`: the “activity change, positive = activation” value was inactive: -39.8%.

Take `CC(C)(C)OC(=O)N1CCC(c2c(C(=O)N3CCN(C(=O)c4ccco4)CC3)cnn2-c2ccc(Cl)cc2)CC1`: the “activity change, positive = activation” value is inactive: -5.21%.

Consider `Cc1ccc(C(=O)NCc2nnnn2-c2ccc(C)c(C)c2)cc1`, for which the “activity change, positive = activation” value was inactive: -18.7%.

On to `Cc1ccc(-c2nnc(Nc3ccc(Br)cc3)c3ccccc23)cc1S(=O)(=O)NCc1nc2ccccc2[nH]1`, for which the “activity change, positive = activation” value was inactive: -31.5%.

Turning to `CCc1ccccc1NC(=O)CC(C)n1nc(C)cc1C` (stereo not given), the “activity change, positive = activation” value is inactive: -0.116%.

Regarding `CCCCCC[C@@H](CCC)C(=O)O`, the “activity change, positive = activation” value was inactive: -19.4%.

Regarding `Cc1ccc(N2C(=O)c3n[nH]c(C)c3C2c2ccc(C(C)C)cc2)cc1` (stereo not given), the “activity change, positive = activation” value is inactive: 0.257%.

On to `CCOC(=O)c1c(S(=O)(=O)N2CCN(c3ccccc3OC)CC2)c(C)n(C)c1C`, for which the “activity change, positive = activation” value is inactive: -7.64%.

Consider `COc1cc(OC)c(NC(=O)NCc2ccc3c(c2)CCN3C(C)=O)cc1Cl`, for which the “activity change, positive = activation” value is inactive: -18.2%.

In the case of `COc1cc2c(cc1OC)C(=O)C(CC1CCN(Cc3ccccc3)CC1)C2` (stereo not given), the “activity change, positive = activation” value was inactive: -17.8%.

As to `CCCCC(CC)CN1CN(CC(CC)CCCC)CC(C)(N)C1` (stereo not given), the “activity change, positive = activation” value is inactive: -13.7%.

Turning to `O=c1c2cc3c(cc2n(Cc2cccc(F)c2)c(=O)n1Cc1nc(-c2ccccc2)no1)OCO3`, the “activity change, positive = activation” value is inactive: -14.7%.

`Cc1nc2sc(C(=O)Nc3ccc(F)cc3)c(N)c2c(-c2ccc(Br)cc2)c1C(=O)Nc1ccc(Cl)cc1`: the “activity change, positive = activation” value was inactive: 11.3%.

`CCc1cccc(NC(=O)c2cnc(SC)nc2-c2ccccc2)c1`: the “activity change, positive = activation” value was inactive: -21%.

With `CCOc1ccc(/C=C/c2nc(C#N)c(NC(C)CC)o2)cc1` (stereo not given), the “activity change, positive = activation” value was inactive: -20%.

Turning to `Cc1cc2nc(-c3ccc(OCc4ccc(F)cc4)cc3)cc(C(F)(F)F)n2n1`, the “activity change, positive = activation” value was inactive: -5.94%.

As to `Cc1ccc(C)c(Cn2c(=O)n(Cc3ccc4c(c3)OCO4)c(=O)c3oc4ccccc4c32)c1`, the “activity change, positive = activation” value was inactive: -17.1%.

As for `CCCCOc1ccc(C(=O)NCCc2sc(-c3cccc(F)c3)nc2C)cc1`, the “activity change, positive = activation” value was inactive: -29.6%.

In the case of `O=C(Nc1ccc(NC(=O)c2cccs2)cc1)c1cccc(Br)c1`, the “activity change, positive = activation” value is inactive: 3.01%.

Turning to `COc1ccc(-c2cn3nc(N4CCC(C(=O)Nc5cccc(OC)c5)CC4)sc3n2)cc1`, the “activity change, positive = activation” value is inactive: 0.462%.

`CCOc1ccc(Sc2cc(C(=O)NC(C)CC)c3ccccc3n2)cc1` (stereo not given): the “activity change, positive = activation” value was inactive: -23.2%.

As to `COc1ccc(N2CCN(S(=O)(=O)c3ccc(OC)c(-c4noc(C)n4)c3)CC2)cc1`, the “activity change, positive = activation” value is inactive: -4.83%.

For the compound `O=C(Cn1ncc2c3ccccc3n(Cc3ccc(Cl)cc3)c2c1=O)NCc1cccs1`, the “activity change, positive = activation” value was inactive: -7.42%.

In the case of `CCCCCCn1c(=O)c2c(ncn2C)n(C)c1=O`, the “activity change, positive = activation” value was inactive: -0.0086%.

Turning to `Cc1cccc(NC(=O)c2sc3nc4c(cc3c2N)CN(Cc2ccccc2)CC4)c1`, the “activity change, positive = activation” value is inactive: 0.938%.

As to `CCOc1ccccc1NC(=O)C(C)Sc1nc(-c2ccccc2)c(C#N)c(=O)[nH]1` (stereo not given), the “activity change, positive = activation” value is inactive: -17.8%.

On to `COc1ccc(C2C(=O)N(C3CCCCC3)CC(=O)N2CCc2ccc(OC)c(OC)c2)cc1` (stereo not given), for which the “activity change, positive = activation” value was inactive: -4.98%.

Take `Cc1ccc(C)c(CN2C(=O)C3(c4ccccc42)N(c2cccc(C(F)(F)F)c2)C(=O)CS3(=O)=O)c1` (stereo not given): the “activity change, positive = activation” value was inactive: -23.4%.

Consider `Cc1ccc2oc(-c3cc(NC(=O)c4ccc5c(c4)OCCO5)cc(C)c3O)nc2c1`, for which the “activity change, positive = activation” value was inactive: -0.673%.

Consider `COc1cc(NC(=O)c2nc3ccccc3nc2C)cc(OC)c1OC`, for which the “activity change, positive = activation” value was inactive: 0.352%.

With `CCC(C(=O)N1CCN(c2ccccc2F)CC1)n1nc(C)c2sc3ccccc3c2c1=O` (stereo not given), the “activity change, positive = activation” value was inactive: -16.2%.

With `COc1cc(CN(C(=O)c2cccc(Cl)c2)c2ccccn2)cc(OC)c1OC`, the “activity change, positive = activation” value was inactive: -26.4%.

Take `COc1ccc(NC(=O)CCn2nc(-c3ccccc3OC)c3c(C)cc(C)nc32)cc1`: the “activity change, positive = activation” value was inactive: -23.4%.

Regarding `Cc1ccccc1OCc1ccc(-c2nc(C#N)c(N3CCN(C)CC3)o2)o1`, the “activity change, positive = activation” value was inactive: -29.4%.

As for `Cc1ccc(Cl)cc1N1CCN(C(=O)c2cccn3c(=O)c4cc(Cl)ccc4nc23)CC1`, the “activity change, positive = activation” value is inactive: -7.73%.

`CC1=C(C(=O)OCC(C)C)C(c2ccc(OCc3ccccc3)cc2)N2C(=O)CCSC2=N1` (stereo not given): the “activity change, positive = activation” value is inactive: -18.6%.

Turning to `Cc1ccc(-n2nc(C(=O)Nc3ccc(Cl)cn3)c3c4ccccc4n(C)c3c2=O)cc1`, the “activity change, positive = activation” value was inactive: -15.5%.

Turning to `O=C(C1CCCN(S(=O)(=O)c2ccc(Br)s2)C1)N1CCN(c2ccc(F)cc2)CC1` (stereo not given), the “activity change, positive = activation” value is inactive: -37.4%.

On to `Cc1cc(NC(=O)CSc2nc3c([nH]c4ccccc43)c(=O)n2-c2ccccc2)no1`, for which the “activity change, positive = activation” value was inactive: -17.8%.

Take `O=c1cc(-c2ccc(F)cc2)nc(SCc2nc(-c3cccc(Cl)c3)no2)[nH]1`: the “activity change, positive = activation” value is inactive: -7.76%.

For the compound `CCc1ccc(NC(=O)CSc2nccn2-c2cccc(C)c2C)cc1`, the “activity change, positive = activation” value is inactive: -25.8%.

As for `CCc1ccc(NC(=O)c2ccc(F)c(S(=O)(=O)N(C)C3CCCCC3)c2)cc1`, the “activity change, positive = activation” value was inactive: -44.3%.

For the compound `Cc1ccc(C2CC(=O)N(Cc3ccccc3)c3c2c(C)nn3-c2nc(C)cc(C)n2)cc1` (stereo not given), the “activity change, positive = activation” value is inactive: -12.8%.

`CC1CN(C(=O)N2CCC(C(=O)NCCC3=CCCCC3)CC2)c2cc(Cl)ccc2O1` (stereo not given): the “activity change, positive = activation” value was inactive: -8.46%.
